# Data reported in PubChem BioAssay AID652104 (National Center for Advancing Translational Sciences (NCATS), 2013).
# Out of some 410,000 compounds screened, about 7,200 (1.8%) were called active. The inconclusive results got no clear call from the source; some entries with a clear call stand among them for comparison. The call rests on the fitted dose curve; in most records, active means well fitted activation curve with a large enough effect; inconclusive means small, poorly fitted or top-dose-only effect, or another doubt; inactive means no such curve, though single readings can be large or run the other way. Potencies of inconclusive entries are left out as doubtful fits.
# Experiment: qHTS of TDP-43 Inhibitors; further: nearly all actives have a fitted effect of over 50% in size; on growth rescue (activation): % of control where 0% means no effect
# Settings: TDP-43 expressing yeast growth rescue, BacTiter-Glo, 24 h; growth rescue (activation): at 46.1 µM (top of the series) unless noted
# Summary of the method: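 Readout is BacTiter-Glo luminescence of cell growth, so inhibitors register as activators. TDP-43-expressing yeast at OD600=0.02 in galactose medium, after raffinose pregrowth to mid-log, were incubated with compound for 24 hr at 30 deg C.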
# Potency means the concentration at half of the fitted maximal effect; tags describe the fitted curve by direction and shape.
Structure (SMILES),growth rescue (activation),Potency
C[C@@]12C(=O)Nc3ccc(Br)cc3C(=O)N1[C@H]1c3cc(Br)ccc3OC[C@@H]1[C@@H]2c1ccccc1,inactive: -19.3%,
Cc1cccc(C(=O)c2cnc3ccccc3c2-c2ccccc2)c1,,"inconclusive [activator, single point]"
Cc1ccc(-n2c(N)c(C(=O)N3CCCCC3)sc2=S)cc1,,active: 11.2 µM
O=c1[nH]c(C2CCCCC2)nc2ccccc12,,"inconclusive [activator, single point]"
CCNc1ccc2noc3c2c1C(=O)c1ccccc1-3,,"inconclusive [activator, single point]"
COc1ccc(CCNC(=O)C2CC(c3ccccc3[N+](=O)[O-])=NO2)cc1 (stereo not drawn),,"inconclusive [activator, partial curve]"
Cc1ccc2c(CC(=O)O)coc2c1C,,"inconclusive [activator, single point]"
O=C(c1ccccc1F)N1CCN(c2ccc([N+](=O)[O-])cc2-n2cccc2)CC1,,"inconclusive [activator, single point]"
O=C(CN1C(=O)COc2ccc(Cl)cc21)Nc1ccccn1,,"inconclusive [activator, partial curve, poor fit]"
CC(Sc1ncnc2c1cnn2-c1ccccc1)C(=O)NCC1CCCO1 (stereo not drawn),,"inconclusive [activator, single point]"
Cc1ccc(C)c(-c2csc(-c3cccnc3)n2)c1,,"inconclusive [activator, single point]"
COc1ccc(CCNC(=O)c2cc(-c3ccccc3)c(N3CCOCC3)s2)c(OC)c1OC,,"inconclusive [activator, partial curve]"
Cc1ccc(N(C)S(=O)(=O)c2c(C)noc2/C=C/N(C)C)cc1,,"inconclusive [activator, single point]"
Cc1scc(C(=O)N/N=C/c2ccsc2)c1C,,"inconclusive [activator, partial curve, poor fit]"
COc1cccc(-c2cc(C(=O)N3CCCCCC3)no2)c1,,"inconclusive [activator, partial curve]"
O=C(CN1CCN(S(=O)(=O)c2ccc(Cl)s2)CC1)NCc1ccc(Cl)cc1,,"inconclusive [activator, partial curve]"
COc1cccc(S(=O)(=O)Nc2ccc3sc(C)nc3c2)c1,,"inconclusive [activator, single point]"
O=C(Nc1ccccc1N1CCCCC1)c1cccc(F)c1,,active: 12.6 µM
CCOc1ccc(CCNC(=O)CCCc2nnc3n(CCCOC)c(=O)c4sccc4n23)cc1,inactive: 22.1%,
O=C(O)CSc1ccc2ccccc2n1,inactive: 20.4%,
COc1ccc2c(c1)c(=O)oc1cc(OCC(=O)NC3CC3)ccc12,inactive: 7.95%,
O=S(=O)(c1cccc2cnccc12)N1CCCNCC1,,"inconclusive [activator, partial curve, poor fit]"

Structure (SMILES),growth rescue (activation),Potency
O=c1c2cc([N+](=O)[O-])ccc2nc2n1CCC2,,"inconclusive [activator, partial curve]"
CCOC(=O)C1CCCN(C(=O)c2cc3c(Cl)nc4ccccc4c3s2)C1 (stereo not drawn),,"inconclusive [activator, single point]"
COc1cccc2sc(N(Cc3cccnc3)C(=O)C3CCCCC3)nc12,,"inconclusive [activator, single point]"
CC1(C(=O)Nc2nccs2)CCN1C(=O)C1(c2ccccc2)CC1 (stereo not drawn),,"inconclusive [activator, partial curve]"
CC(Oc1ccc(Br)cc1)C(=O)Nc1nc(-c2ccccn2)cs1 (stereo not drawn),,"inconclusive [activator, single point]"
CC(=O)Oc1ccc2c(=O)c(Oc3ccccc3)coc2c1OC(C)=O,,"inconclusive [activator, single point]"
COc1ccc(Nc2nc(-c3ccccc3O)nc3ccccc23)cc1,,"inconclusive [activator, single point]"
Cc1c(-c2ccc(Cl)cc2)c(=O)oc2c(CN3CCN(C)CC3)c(O)ccc12,inactive: 23.6% [at 9.22 µM],
O=C(NC1CC1)c1cc2c(F)cccc2s1,,"inconclusive [activator, partial curve]"
O=C(CC(=O)N/N=C/c1ccc(C(=O)O)cc1)NCCc1ccccc1,inactive: 15.8%,
CCN(CC(O)c1cccc(O)c1)C(=O)C12CC3CC(CC(C3)C1)C2 (stereo not drawn),,"inconclusive [activator, partial curve]"
COc1ccc(NC(=O)c2sc(=O)n(Cc3cccc(C(F)(F)F)c3)c2C)cc1OC,,"inconclusive [activator, partial curve]"
CC(C)[C@H]1COCCS(=O)(=O)N1Cc1ccccc1-c1ccccc1,,"inconclusive [activator, single point]"
CN(C)c1ccc(C(=O)C=Cc2ccc([N+](=O)[O-])cc2)cc1,,"inconclusive [activator, partial curve]"
CC(C)C[C@H]1CNC(=S)N1C[C@H]1CCCN1C[C@H](Cc1ccc(O)cc1)N1C[C@H](Cc2ccc(O)cc2)N(CCc2ccccc2)C1=S,,"inconclusive [activator, full curve, poor fit]"
CCOC(=O)c1cc(-c2cccc([N+](=O)[O-])c2)n[nH]1,,"inconclusive [activator, partial curve]"
O=S(=O)(NCCOc1ccccc1F)c1ccc(Cl)cc1F,,active: 22.4 µM
Cc1ccc(Nc2ccc(C(=O)O)cc2[N+](=O)[O-])cc1,,active: 2.82 µM
COc1ccc(C(=O)Nc2cc3c(cc2Cl)OCCCO3)cc1,,"inconclusive [activator, single point]"
CC1CCCCCCC1OC(=O)c1ccccc1C(=O)O (stereo not drawn),,"inconclusive [activator, single point]"
O=C(Nc1cccn(Cc2c(Cl)cccc2Cl)c1=O)C1CC1,,"inconclusive [activator, single point]"
